Data set [1] in a line: Plasma exposure in cynomolgus monkey (Example 20). Particulars: conjugated AF-HPA in plasma; female cynomolgus monkeys, 1 mg/kg by antibody, IV infusion over 30 minutes. Here is the method:
(§1) To determine the concentration of the free AF-HPA drug in a biological sample, an acidified sample was treated with ACN. The free drug was extracted and the ACN supernatant was analyzed. To determine the concentration of conjugated AF-HPA in a non-clinical sample, the sample was subjected to immunocapture using anti-IgG1 antibody-coated magnetic beads followed by exhaustive basic hydrolysis. The ACN supernatant containing the released AF-HPA drug was analyzed by LC-MS/MS. The total antibody concentration in non-clinical samples was measured by LC-MS/MS after immunocapture using an anti-IgG1 antibody via detection of a peptide sequence unique for the antibody after tryptic digestion. For clinical samples, the same procedure could be followed except that an anti-idiotype antibody would be used for immunocapture to avoid the interference of endogenous antibodies.
Female cynomolgus monkeys were injected intravenously with Conjugate 7 or Conjugate 11 at 1 mg/kg by antibody by IV infusion over 30 minutes (n=2 for each group). Plasma was collected at 1 hour, 8 hours, 24 hours, 48 hours, 96 hours, 168 hours, 240 hours, 288 hours, 336 hours, 456 hours, and 504 hours post dosing.

For the next data set, the target named is T1, NaPi2b-derived peptide (Homo sapiens, UniProt O95436).
T1 construct: Genscript); purchased Genscript
T1 sequence (O95436 311-340 limits assumed): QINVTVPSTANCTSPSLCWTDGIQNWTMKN
The data set is described as follows: Binding kinetics to NaPi2b-derived peptide by Biolayer Interferometry. Particulars: BLI, 25° C. Here is the method: The binding kinetics of XMT-1535, Conjugate 7, and Conjugate 11 to immobilized NaPi2b-derived peptide antigen were determined by Biolayer Interferometry (BLI; Octet; ForteBio). Binding constants for XMT-1535, Conjugate 7, and Conjugate 11 were determined using standard Octet procedures (ForteBio). Biotinylated NaPi2b-derived peptide ([…]-biotin; Genscript) was immobilized to streptavidin octet sensors in kinetics buffer (10×). Sensors were then blocked in kinetics buffer (10×) with biocytin (50 μg/mL). Increasing concentrations of XMT-1535, Conjugate 7, or Conjugate 11 were then associated with immobilized peptide in kinetics buffer (10×).
For orientation: Biolayer interferometry detects binding as a change in optical thickness at a sensor tip.

The test system of the next data set is OVCAR3 tumors. The data set is described as follows: Tumor growth response in OVCAR3 tumor-bearing mouse model. The settings on record: OVCAR3, by Day 33, 0.1 mg/kg by payload. It is filed as in vivo. Here is the method:
Tumor growth inhibition (% TGI) was defined as the percent difference in median tumor volumes (MTVs) between treated and control groups. Tumor size was measured throughout each efficacy study to determine tumor growth inhibition (TGI).
Tumor size was measured at the times indicated in FIG. 7 using digital calipers. Tumor volume was calculated and was used to determine the delay in tumor growth. Mice were sacrificed when tumors reached a size of ≥1500 mm^3. Tumor volumes are reported as the mean±SEM for each group.
FIG. 7 provides the results for the tumor response in mice inoculated subcutaneously with OVCAR3 cells (n=8 for each group) after IV administration as a single dose on day 1 of Conjugate 7, Conjugate 11, or control Conjugate 10 at 0.025 mg/kg, 0.05 mg/kg or 0.1 mg/kg by payload, or vehicle.

Another data set can be described thus: Plasma exposure in rat. The settings on record: conjugated AF-HPA in plasma; female Sprague-Dawley rats, IV bolus 0.34 mg/kg by payload. Here is the method:
as §1
Female Sprague-Dawley rats were inoculated by IV bolus into the tail vein with Conjugate 7 or Conjugate 11, at a dose of 0.34 mg/kg by payload (n=4 for each group). Plasma was collected at 10 minutes, 24 hours, 96 hours, 168 hours, 336 hours, and 504 hours post dosing.

The subject of a further data set is OVCAR3. The data set is described as follows: Cytotoxicity assay, OVCAR3, CellTiter-Glo. It is filed as cell-based, human. Particulars: after six days of treatment. Here is the method: Conjugate 7 and Conjugate 11 were evaluated for their antiproliferation properties in the tumor cell line OVCAR3 in vitro using CellTiter-Glo® (Promega Corp). Cells were plated at a density of 5,000 cells per well in white-walled (volume) 96-well plate and allowed to adhere overnight at 37° C. in a humidified atmosphere of 5% CO2. Cells were incubated with increasing concentrations of the test articles (Conjugate 7 or Conjugate 11, or control Conjugate 10). Three days later, CellTiter-Glo® reagent was added to the wells at room temperature. The luminescent signal was measured after 10 minutes using a SpectraMax M5 plate reader (Molecular Devices). Dose-response curves were generated using Graphpad Prism software. EC50 values were determined from four-parameter curve fitting. Table X summarizes the EC50 values of Conjugate 7, Conjugate 11, and control Conjugate 10 after six days of treatment.
(In general: Cellular ATP, detected with luciferase, serves as a proxy for viable cell number.)

The nature of a further data set: Plasma exposure in mice. Particulars: conjugated AF-HPA in plasma; OVCAR3 tumor-bearing mice, single IV dose 0.05 mg/kg by payload. Here is the method: as §1
Female athymic nude mice were inoculated subcutaneously with OVCAR3 cells (n=4 for each group). Conjugate 7, Conjugate 11, or vehicle were dosed intravenously as a single dose on day 1 (mean tumor size of 174-176 mm^3 per group; range of 126-257 mm^3) at 0.05 mg/kg dose by payload. Plasma was collected at 10 minutes, 24 hours, 96 hours, 168 hours, 336 hours, and 504 hours post dosing.

B1: Conjugate 11: stochastic XMT-1535 conjugate made with the maleimido scaffold of Scaffold 6 (conjugate)
heavy: QVQLVQSGAEVVKPGASVKMSCKASGYTFTGYNIHWVKQAPGQGLEWIGAIYPGNGDTSYKQKFRGRATLTADTSTSTVYMELSSLRSEDSAVYYCARGETARATFAYWGQGTLVTVSSGASTKGPSVFPLAPSSKSTSGGTAALGCLVKDYFPEPVTVSWNSGALTSGVHTFPAVLQSSGLYSLSSVVTVPSSSLGTQTYICNVNHKPSNTKVDKRV[left out - human IgG1 Fc]
light: DIQMTQSPSSLSASVGDRVTITCSASQDIGNFLNWYQQKPGKTVKVLIYYTSSLYSGVPSRFSGSGSGTDYTLTISSLQPEDFATYYCQQYSKLPLTFGQGTKLELKRRTVAAPSVFIFPPSDEQLKSGTASVVCLLNNFYPREAKVQWKVDNALQSGNSQESVTEQDSKDSTYSLSSTLTLSKADYEKHKVYACEVTHQGLSSPVTKSFNRGEC
Regarding B1, in data set [1], the AUCinf turned out to be 2140 ng·days/mL; the Clobs is 16.8 mL/day/kg; the Cmax (as a rule, the peak of the concentration-time curve) came to 758 ng/mL; the Volss came out at 105 mL/kg. The t1/2 in data set [1] worked out at 4.83 days. Besides, in the data set with NaPi2b-derived peptide, the “koff, Mean Napi2b binding” value turned out to be 1.37e-05 s⁻¹ and the “kon, Mean Napi2b binding” value turned out to be 165000 M⁻¹ s⁻¹. In addition, the tumor regression result in the data set with OVCAR3 tumors was “majority of tumors regressed”. Further, in the data set “Plasma exposure in rat”, the AUCinf was 15600 ng·days/mL, the Clobs was found to be 21.8 mL/day/kg, the Cmax came out at 7950 ng/mL and the Volss is given as 125 mL/kg. The molecule further had a t1/2 in the data set “Plasma exposure in rat” of 5.29 days. For the same molecule, in the data set with OVCAR3, the EC50 – broadly, the concentration needed to bring the measured effect to its halfway point – was found to be 0.53 nM. In “Plasma exposure in mice”, the AUCinf came out at 3680 ng·days/mL, the Clobs was found to be 13.6 mL/day/kg, the Cmax is given as 1100 ng/mL and the Volss was determined as 106 mL/kg. For the same molecule, the t1/2 in the data set “Plasma exposure in mice” amounted to 5.84 days.

These data come from patent US11786605B2, “Site specific antibody-drug conjugates with peptide-containing linkers” (Mersana Therapeutics, Inc., priority 2020, dated 2023).
